These are yes or no findings as the source states them, for the method shown. Binding seen in cells or lysates may run through a third protein. Some binding calls cover weakened binding; strength is not graded here. For some assays here: Sequences can lack the tags named with a protein. Blank lines part the entries; values can stand above or below the molecule they belong to.
Legend:
[1] = target: ALPS-associated Fas mutant Fas-A257D tagged with mCerulean3 or mVenus (human) (UniProt P25445); assay: FRET or BRET; flow-cytometric FRET in live Jurkat cells co-transfected with homotypic pairs of Fas receptors, one tagged with mCerulean3 and one with mVenus; 24 h after transfection cells were treated with FasL-LZ and read at time points from 5 min; fold change in FRET over untreated cells; RapoC2 (Fas-deficient) cells; for wild-type Fas also wild-type, I2.1 (FADD-deficient) and I9.2 (caspase-8-deficient) Jurkat cells
[2] = target: ALPS-associated Fas mutant Fas-E261K tagged with mCerulean3 or mVenus (human) (UniProt P25445); assay: as above
[3] = target: Fas-C199V palmitoylation mutant tagged with mCerulean3 or mVenus (human) (UniProt P25445); assay: as above
[4] = target: ALPS-associated Fas mutant Fas-A257D tagged with mCerulean3 or mVenus (human) (UniProt P25445); assay: FRET or BRET; flow-cytometric FRET in live RapoC2 (Fas-deficient) Jurkat cells co-transfected with Cerulean3-tagged FADD DD and wild-type or mutant Fas; cells were treated with FasL-LZ; change in FRET over untreated cells
[5] = target: ALPS-associated Fas mutant Fas-E261K tagged with mCerulean3 or mVenus (human) (UniProt P25445); assay: as above
[6] = target: Fas-C199V palmitoylation mutant tagged with mCerulean3 or mVenus (human) (UniProt P25445); assay: as above
[7] = target: wild-type Fas receptor (Fas/CD95) tagged with mCerulean3 or mVenus (human) (UniProt P25445); assay: as above
[8] = target: T1, wild-type Fas receptor (Fas/CD95) tagged with mCerulean3 or mVenus (human), P25445; assay: FRET or BRET; flow-cytometric FRET in live Jurkat cells co-transfected with homotypic pairs of Fas receptors, one tagged with mCerulean3 and one with mVenus; 24 h after transfection cells were treated with FasL-LZ and read at time points from 5 min; fold change in FRET over untreated cells; RapoC2 (Fas-deficient) cells; for wild-type Fas also wild-type, I2.1 (FADD-deficient) and I9.2 (caspase-8-deficient) Jurkat …; conditions: remark: other sources report otherwise
T1 chain: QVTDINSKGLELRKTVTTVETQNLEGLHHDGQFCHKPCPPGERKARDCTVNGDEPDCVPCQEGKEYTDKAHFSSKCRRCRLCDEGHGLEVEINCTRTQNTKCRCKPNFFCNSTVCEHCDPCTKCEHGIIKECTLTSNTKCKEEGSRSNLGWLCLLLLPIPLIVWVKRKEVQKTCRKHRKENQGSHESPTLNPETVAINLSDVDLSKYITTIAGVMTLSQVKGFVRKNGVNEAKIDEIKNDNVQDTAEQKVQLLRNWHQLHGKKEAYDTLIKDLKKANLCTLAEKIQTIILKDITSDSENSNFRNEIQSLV

The chains behind the UniProt entries cited, without tags or fusion partners. Residues count along the entry.
UniProt Q13158, residues 97-181: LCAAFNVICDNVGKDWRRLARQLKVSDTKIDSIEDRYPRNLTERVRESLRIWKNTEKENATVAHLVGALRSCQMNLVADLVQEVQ

Molecule: ALPS-associated Fas mutant Fas-A257D tagged with mCerulean3 or mVenus (from UniProt P25445 26-335) (receptor)
binding [1]: binds

Molecule: Cerulean3-tagged FADD containing only the death domain (FADD DD) (from UniProt Q13158 97-181) (domain or fragment)
binding [4]: no binding
binding [5]: no binding
binding [6]: binds
binding [7]: binds

B1: wild-type Fas receptor (Fas/CD95) tagged with mCerulean3 or mVenus, P25445 26-335 (receptor)
chain: QVTDINSKGLELRKTVTTVETQNLEGLHHDGQFCHKPCPPGERKARDCTVNGDEPDCVPCQEGKEYTDKAHFSSKCRRCRLCDEGHGLEVEINCTRTQNTKCRCKPNFFCNSTVCEHCDPCTKCEHGIIKECTLTSNTKCKEEGSRSNLGWLCLLLLPIPLIVWVKRKEVQKTCRKHRKENQGSHESPTLNPETVAINLSDVDLSKYITTIAGVMTLSQVKGFVRKNGVNEAKIDEIKNDNVQDTAEQKVQLLRNWHQLHGKKEAYDTLIKDLKKANLCTLAEKIQTIILKDITSDSENSNFRNEIQSLV
binding [8]: binds

Now from value to molecule:

binding [2]: binds
Molecule: ALPS-associated Fas mutant Fas-E261K tagged with mCerulean3 or mVenus (from UniProt P25445 26-335) (receptor)

binding [3]: binds
Molecule: Fas-C199V palmitoylation mutant tagged with mCerulean3 or mVenus (from UniProt P25445 26-335) (receptor)
